According to PubChem BioAssay AID662 (National Center for Advancing Translational Sciences (NCATS), 2007):
Among all 71,000 compounds or so, about 1,800 (2.5%) were called active. This list was built around the results that the source calls inconclusive (neither active nor inactive); the mix of calls is not that of the screen. Calls come from the whole dose curve; as a rule, active = well fitted activation curve with a large enough effect in the signal ratio, with a control signal flat (not every such curve was filed as active); inconclusive = small, poorly fitted or top-dose-only effect, or effect the other way, or a change in a side signal; inactive = flat fitted curve, though single readings scatter; the % refers to the signal ratio. Potencies of inconclusive entries are doubtful fits and often do not repeat.

test: Cell signaling CRE-BLA (Fsk stim); details: CHO CRE-bla reporter (cAMP response element driving beta-lactamase), forskolin EC10, beta-lactamase ratio; activity change, negative = inhibition: at 38.2 µM (top of the series) unless noted; for activity change, negative = inhibition: % of control where 0% means no effect
Outline: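 Using CellSensor CRE-bla CHO cells in Opti-MEM with 0.5% dialyzed FBS, compounds were titrated with EC10 NKH 477 for 3 h at 37 °C. CCF4 ratio (460/530 nm) gave %Activity; AC50 derived.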
Potency is the fitted concentration of half-maximal effect; tags give direction and shape of the fitted curve.

Compound	Potency	activity change, negative = inhibition
CCOc1cc(C#N)c(NC(=O)c2cccnc2)cc1OCC	inconclusive: 12.6 µM [rising, partial curve]	
Cc1cccc(N2CCN(C(=O)c3cc4n(n3)C(C(F)(F)F)CC(c3ccco3)N4)CC2)c1C (centres undefined)		inconclusive: -19.4%
CCn1c(SCC(=O)Nc2nc3c(s2)CCCC3)nnc1-c1ccccc1		inconclusive: 15.5%
O=C1CC(Nc2ccc(N3CCOCC3)cc2)C(=O)N1C1CCCCC1 (centres undefined)		inconclusive: -4.52%
Cn1cc(C(=O)NC2CCCCCC2)c(=O)c2cc(S(=O)(=O)N3CCCC3)ccc21	inconclusive: 1.26 µM [rising, full curve, poor fit]	
CCn1c(SCc2nc(-c3ccccc3)no2)nc2ccccc21	inconclusive: 12.6 µM [rising, partial curve]	
CC1CCN(C(=O)CN(c2ccc3c(c2)OCO3)S(C)(=O)=O)CC1		inconclusive: -3.67%
Cc1oc(-c2ccc(F)cc2)cc1-c1nn2c(-c3ccoc3C)nnc2s1		inconclusive: 6.28%
O=c1c2cc(Cl)ccc2nc2ccc(N3CCCC3)nn12		inactive: 23.1%
O=S(=O)(c1ccccc1)N1CCC2(CCN(Cc3ccccc3)CC2)CC1		inactive: -14.3%
CSc1nnnc2ccccc12		inactive: -0.17% [at 7.6 µM]
COCCCNC(=O)c1c(N)n(-c2ccc3c(c2)OCO3)c2nc3ccccc3nc12	active: 10 µM	
CC(C)(C)OC(=O)N1CCC(C(=O)N2CCC[C@H]2C(=O)O)CC1		inconclusive: 3.81%
O=C(O)Cn1nnnc1SCC(=O)Nc1ccc(OC(F)(F)F)cc1		inconclusive: 5.75%
Cc1ccccc1Nc1nc(N)nc(CSc2nnc3sc4ccccc4n23)n1	inconclusive: 7.94 µM [rising, partial curve]	
C=CCn1c(NCCO)nc2sc3c(c2c1=O)CCC3	inconclusive: 10 µM [rising, partial curve]	
CC(=O)Cc1nsc(NC(=O)c2ccc(COc3ccccc3)o2)n1		inactive: -0.915%
CCCC/C=C/C(NC(=O)c1cccs1)c1ccccc1 (centres undefined)		inactive: 0.885%
COc1ccc2[nH]c3c(=O)n(CCCCC(=O)NCCN4CCCC4)c(=S)[nH]c3c2c1		inactive: -0.226%
O=C1CC(SC(=NCc2ccc3c(c2)OCO3)Nc2ccccc2)C(=O)N1 (centres undefined)		inactive: -3.18%
CCN1C(=O)CC(Sc2ccccc2N)C1=O (centres undefined)		inactive: -1.21%

Compound	Potency	activity change, negative = inhibition
Cc1cc(C(=O)CN2C(=O)c3ccccc3C2=O)c(C)n1C1CC1	inconclusive: 5.01 µM [falling, partial curve]	
Cc1nc(CN2CCN(C(=O)c3ccc(Br)cc3)CC2)cs1		inactive: -9.87%
O=C(Nc1cccc(-c2nc3ncccc3o2)c1)c1cc2ccccc2o1		inconclusive: -9.54%
COC(=O)Nc1ccc(S(=O)(=O)N(CCO)CC(F)(F)C(F)F)cc1		inconclusive: 1.89%
COC(=O)c1cn(NC(=O)c2cnccn2)c(=O)c2ccccc12		inconclusive: -12.3%
COc1ccccc1Nc1nc(N)nc(CSc2nnc(C)s2)n1	inconclusive: 12.6 µM [rising, single point]	
CCOC(=O)Cc1csc(NC(=O)CSc2ncnc3c2cnn3-c2ccc(OC)cc2)n1		inconclusive: 25.8%
CCOc1ccccc1OCc1nn2c(COc3ccccc3)nnc2s1	inconclusive: 3.16 µM [rising, single point]	
NC(=O)CS(=O)(=O)c1nc2ccccc2n1Cc1ccccc1F		inconclusive: -29.9%
COc1ccc(-c2cc3nc4c(c(N5CCC6(CC5)OCCO6)n3n2)CCCC4)cc1	active: 2 µM	
Clc1ccc(COC(Cn2ccnc2)c2ccc(Cl)cc2Cl)c(Cl)c1 (centres undefined)	inconclusive: 12.6 µM [rising, single point]	
CC(=O)N1CCC2(CC1)CN(c1ccccn1)C2		inactive: -9.34%
Nn1cc(-c2ccccc2)nc1SCC(=O)N1CCN(S(=O)(=O)c2ccccc2)CC1	inconclusive: 3.16 µM [falling, single point]	
Cc1ccc(-c2csc3ncnc(OCC(=O)NC(=O)NCc4ccco4)c23)cc1		inconclusive: 3.77%
Cn1c(C(=O)NCCCN2CCCC2=O)cc2c(=O)n(C)c3ccccc3c21	active: 3.98 µM	
COc1ccc(-c2nc(CS(=O)CC(=O)NC3CCCc4ccccc43)c(C)o2)cc1OC (centres undefined)	inconclusive: 10 µM [rising, partial curve]	
Brc1c(OCCOCCn2cncn2)ccc2ccccc12	inconclusive: 12.6 µM [rising, partial curve]	
CC(C)(C)C1CCC2(CC1)NC(CO)(CO)CO2 (centres undefined)		inconclusive: 16%
COc1ccc(NS(=O)(=O)c2ccc(Oc3ncccn3)cc2)cc1		inconclusive: 15.1%
COc1ccc(CN2C(=O)[C@@H]3C(c4ccccc4Cl)=NO[C@@H]3C2=O)cc1		inconclusive: 11.9%
CSc1nnc(NC(=O)C2CCCCC2)s1		inconclusive: 2.18%

Compound	Potency	activity change, negative = inhibition
O=C1NC(=O)c2cc([N+](=O)[O-])ccc21		inactive: -8.01%
CC(C)(C)n1ncc2c(=O)n(CC(=O)N3CCc4ccccc43)cnc21		inconclusive: 7.3%
CNc1nc(SC)nc(N2CCOCC2)n1		inconclusive: 27.8%
COC(=O)CN(c1ccc(OC)cc1)S(=O)(=O)c1ccc(OC)c(OC)c1		inconclusive: 23.7%
NCCCc1ccc2oc3ccccc3c2c1		inactive: -1.98% [at 7.6 µM]
O=C(c1cccs1)N1CCN(S(=O)(=O)N2CCOCC2)CC1		inconclusive: 1.58%
Cc1nc2ccc(Cl)cc2[nH]1		inactive: -11.8%
O=C(/C=N/O)NCCCN1CCCCCC1	inconclusive: 3.16 µM [falling, single point]	
O=C(NCCc1ccccc1)C1CCN(S(=O)(=O)c2cccs2)CC1		inconclusive: -13.5%
O=C(Nc1ccc(F)cc1)N(CCCN1CCOCC1)Cc1cc2cc3c(cc2[nH]c1=O)OCO3	inconclusive: 12.6 µM [rising, partial curve]	
Cn1c(C(=O)NCc2ccccn2)cc2c(=O)n3ccccc3nc21	active: 2 µM	
CCC(C)c1ccc(O)c(N)c1 (centres undefined)		inactive: -4.75%
Cn1c(=O)[nH]c(=O)c2c1nc(NCc1ccccc1)n2CCCc1ccccc1		inconclusive: 27.3%
O=c1cc(N2CCc3ccccc3C2)[nH]c(=O)n1Cc1ccc(F)cc1		inconclusive: 2.69%
CCOc1ccccc1CNC(=O)C1CCCN(c2nc3ccccc3o2)C1 (centres undefined)		inconclusive: 2.83%
FC(F)(F)c1ccccc1-c1ccc2ncnc(NC3CCNCC3)c2c1	inconclusive: 12.6 µM [rising, partial curve]	
Cc1cc(OCn2ccc(C(=O)O)n2)ccc1Cl		inactive: -9.44%
COc1ccc(N2CCN(c3nc(NCCc4ccc(OC)c(OC)c4)nc(OC)n3)CC2)cc1	active: 3.16 µM	
Cc1ccc(CNC(=O)CCS(=O)(=O)c2cccc3nonc23)cc1	inconclusive: 0.0794 µM [falling, full curve, poor fit]	
CCn1c(N)c(C(=O)NC2CCCCC2)sc1=S		inconclusive: 6.32%
N#CCSc1nc(Nc2ccc3c(c2)OCO3)c2ccccc2n1		inconclusive: 20.1%

Compound	Potency	activity change, negative = inhibition
O=c1c(-c2cccs2)nc2cnc(Oc3cccc(Cl)c3)nc2n1C[C@H]1CCCO1	inconclusive: 6.31 µM [rising, partial curve]	
O=c1oc2c(CN3CCOCC3)c(O)ccc2c2c1CCC2	inconclusive: 10 µM [rising, single point]	
Cc1c(C(=O)OCC(C)C)[nH]c2c1C(=O)CC(c1ccco1)C2 (centres undefined)	active: 1.58 µM	
O=c1oc2ccccc2c2c1ncn2CCN1CCOCC1		inactive: 6.39%
C=CCNC(NC(=O)c1ccccc1)(C(=O)OCC)C(F)(F)F (centres undefined)		inactive: -4.24%
CC1Cc2ccccc2N1C(=O)CSc1nc2ccccc2o1 (centres undefined)	inconclusive: 12.6 µM [falling, single point]	
COc1ccc(-c2nc3cnc(OCc4ccccc4)nc3n(CCC#N)c2=O)cc1	inconclusive: 3.98 µM [rising, partial curve]	
CC(=O)c1cccc(NC(=O)COc2ccc(S(=O)(=O)N3CCCCC3)cc2)c1		inactive: -3.64%
Cc1ccnc(NC(=O)c2cc(S(=O)(=O)N3CCCCC3)ccc2Cl)c1		inactive: 6.34%
CN(C)c1ccc(-c2nnc(-c3ccc(S(=O)(=O)C(F)F)cc3)o2)cc1		inactive: 3.09%
O=C(NCc1ccco1)c1nn(-c2ccccc2)c(=O)c2ccccc12	inconclusive: 6.31 µM [rising, partial curve]	
CN(C)c1ncc2nc(-c3ccc(Cl)cc3)c(=O)n(-c3ccccc3)c2n1	inconclusive: 1 µM [rising, full curve]	
O=C(NCCc1ccccc1)c1ccccc1NS(=O)(=O)N1CCCC1		inactive: 20.1%
Cn1nnnc1SCC(=O)Nc1ccc(Br)cc1Cl		inactive: -8.44%
Cc1cc(NC(=O)CSc2nc(-c3ccco3)cc(C(F)(F)F)n2)no1	active: 3.98 µM	
CCC(C)NC(=O)C1CCN(C(=O)N(C)C)CC1 (centres undefined)		inconclusive: 5.71%
COc1cc(Cl)c(C)cc1NC(=O)COc1cc(C)nc(C(C)C)n1		inconclusive: 5.26%
CCN(C(=O)CSc1nc2cc(C(=O)OC)ccc2c(=O)n1Cc1ccco1)c1cccc(C)c1	inconclusive: 2 µM [rising, partial curve]	
Cc1cc(Cl)ccc1Nc1sc(C(=O)c2cc3cc(Cl)ccc3o2)c(N)c1C#N		inconclusive: 5.69% [at 7.6 µM]
CCOc1ccccc1C(=O)Nc1ccc2nc(N3CCN(c4ncccn4)CC3)cc(C)c2c1	inconclusive: 1 µM [rising, full curve]	
CCOC(=O)C1C(c2cccc(Cl)c2Cl)NC(=O)NC1(O)C(F)(F)F (centres undefined)		inconclusive: -4.56% [at 7.6 µM]
